Experimental data published in PubChem BioAssay (NCATS).
Records with an inconclusive call do not appear. The call rests on the fitted dose curve; in most records, active means well fitted inhibition curve with a large enough effect; inconclusive means small, poorly fitted or top-dose-only effect; inactive means no such curve, though single readings can be large or run the other way. Where a structure was tested more than once in an assay, its records may differ in their call. A number of entries come with more than one value. The list is limited to them. An entry can have further records. Values given together are repeated measurements (runs, samples, wells, individuals or studies).

Molecular target: Cytochrome P450 2C19 (Homo sapiens) (UniProt P33261)
Experiment: qHTS Assay for Inhibitors and Substrates of Cytochrome P450 2C19 (AID 899); further: nearly all actives have a fitted effect of over 60% in size
Settings: recombinant CYP2C19, luciferin-H EGE luminescence; series mostly up to 11.4 µM
How it was run: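 Luminescence readout of luciferin formed from 10uM Luciferin-H EGE (KM level) by 5 nM CYP2C19 in 50mM KPO4. 60 min NADPH-driven reaction at 37C after 10 min compound preincubation; data scaled to 57uM ketoconazole inhibition.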
Potency means the concentration at half of the fitted maximal effect.

Sequence of UniProt P33261 (P33261 whole entry, looked up): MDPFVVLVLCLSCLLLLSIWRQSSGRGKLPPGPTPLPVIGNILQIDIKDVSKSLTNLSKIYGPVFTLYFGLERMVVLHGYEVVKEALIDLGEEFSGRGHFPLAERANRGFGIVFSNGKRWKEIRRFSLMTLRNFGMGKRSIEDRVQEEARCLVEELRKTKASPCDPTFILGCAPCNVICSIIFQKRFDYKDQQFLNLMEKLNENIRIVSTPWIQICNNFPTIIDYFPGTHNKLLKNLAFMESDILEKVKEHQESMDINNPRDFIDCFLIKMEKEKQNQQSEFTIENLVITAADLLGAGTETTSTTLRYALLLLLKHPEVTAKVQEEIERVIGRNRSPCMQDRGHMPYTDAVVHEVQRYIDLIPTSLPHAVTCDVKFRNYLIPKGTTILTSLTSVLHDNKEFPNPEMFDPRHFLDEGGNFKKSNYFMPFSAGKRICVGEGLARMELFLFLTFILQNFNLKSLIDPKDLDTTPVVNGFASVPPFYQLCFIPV

SMILES: CC1CCC2C(=O)OC(CN=[N+]=[N-])CN2C1c1ccc(Br)cc1 (stereo unspecified)
- Potency: inactive and active: 2.51 µM, 398 nM, 20 nM, 1.26 µM [separate samples]
